{"source": "PubChem BioAssay AID504832", "about": "(National Center for Advancing Translational Sciences (NCATS), 2011)", "note": "The campaign covered roughly 310,000 compounds. About 18,000 (5.8%) were called active. Inconclusive means that the source gave no clear call. Such entries were picked first, then a sample of the others. The call rests on the fitted dose curve; in most records, active means well fitted inhibition curve with a large enough effect; inconclusive means small, poorly fitted or top-dose-only effect, or another doubt; inactive means no such curve, though single readings can be large or run the other way. Potencies of inconclusive entries are left out as doubtful fits. On the % scale 0 is the no-effect control and ±100 the full control effect; potency means the concentration at half of the fitted maximal effect; tags describe the fitted curve by direction and shape."}
{"test": "Primary qHTS for delayed death inhibitors of the malarial parasite plastid, 48 hour incubation", "settings": "P. falciparum luciferase growth in erythrocytes; series mostly up to 28.7 µM; activity change, negative = inhibition: at the top concentration", "outline": "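Read-out is firefly luciferase luminescence from an integrated reporter in P. falciparum, so falling signal marks reduced parasite growth. Infected erythrocytes were at 2% hematocrit and 0.1% parasitemia (final) in Albumax-supplemented RPMI 1640.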"}
{"smiles": "COCCNC(=O)CSc1nc(-c2ccccc2)c(-c2ccccc2)o1", "Potency": "active: 8.28 µM"}
{"smiles": "CCOC(=O)c1ccc(NC(=O)CCCN2C(=O)NC3(CCCC3)C2=O)cc1", "Potency": "inconclusive [inhibitor, single point]"}
{"smiles": "Cc1c(C#N)c(NC(=O)CCl)n(Cc2ccc(F)cc2)c1C", "Potency": "inconclusive [inhibitor, partial curve, poor fit]"}
{"smiles": "CCOc1ccc(C(=O)NC2CCN(C(=O)Nc3ccccc3OC)CC2)cc1", "Potency": "inconclusive [inhibitor, partial curve, poor fit]"}
{"smiles": "COc1ccc(C)cc1NC(=O)CN(C)C1CCCCC1", "Potency": "inconclusive [inhibitor, single point]"}
{"smiles": "CCn1c(CNC(=O)c2ccccc2F)nnc1SCC(=O)Nc1nncs1", "activity change, negative = inhibition": "inactive: 0.199%"}
{"smiles": "COCCn1nnnc1C(c1cccc(C#N)c1)N1CCCCCC1", "note": "(stereo not given)", "Potency": "inconclusive [inhibitor, partial curve, poor fit]"}
{"smiles": "COc1ccc(C2N(c3ccccc3)CCN2c2ccccc2)cc1O", "activity change, negative = inhibition": "inactive: 21.9%"}
{"smiles": "CC(=O)C(Cc1ccccc1)NC(=O)CN(C)Cc1ccccc1Cl", "note": "(stereo not given)", "Potency": "inconclusive [inhibitor, single point]"}
{"smiles": "Cc1ccc(-c2nnc(SCC(=O)N3CCCC3)o2)cc1C", "activity change, negative = inhibition": "inactive: 11.2%"}
{"smiles": "O=C(Nc1ccc2c(c1)CCCN2C(=O)c1ccccc1)c1ccccc1Br", "Potency": "inconclusive [inhibitor, single point]"}
{"smiles": "Cc1ccc(S(=O)(=O)n2cc(-c3ccccc3)c3ccccc32)cc1", "Potency": "active: 2.62 µM"}
{"smiles": "CN(C)c1ccc(S(=O)(=O)N2CCCCC2)cc1NC(=O)CN1C(=O)NC(C)(c2ccccc2)C1=O", "note": "(stereo not given)", "Potency": "inconclusive [inhibitor, partial curve]"}
{"smiles": "COc1ccc(CCN2CCCn3c2nc2c3c(=O)n(C)c(=O)n2C)cc1OC", "Potency": "inconclusive [inhibitor, partial curve, poor fit]"}
{"smiles": "COc1ccc(NC(=O)C(Cc2ccccc2)n2cccc2)c(OC)c1", "note": "(stereo not given)", "Potency": "inconclusive [inhibitor, single point]"}
{"smiles": "Cc1cc(C(=O)CN2C(=O)C(=O)N(Cc3ccco3)C2=O)c(C)n1CCc1ccc(F)cc1", "activity change, negative = inhibition": "inactive: -28%"}
{"smiles": "N#CC1=C(N)C(C#N)(C#N)[C@H](c2ccoc2)[C@H]2CN(Cc3ccccc3)CC=C12", "Potency": "inconclusive [inhibitor, single point]"}
{"smiles": "Cc1cccc(-c2noc(CN(C(C)C)S(=O)(=O)c3ccc(F)cc3)n2)c1", "Potency": "inconclusive [inhibitor, single point]"}
{"smiles": "O=C(Cn1cncn1)N/N=C/c1ccccc1O", "activity change, negative = inhibition": "inactive: -20.5%"}
{"smiles": "COc1cccc(C(=O)N2CCC(C(=O)NCc3ccc(C)cc3)CC2)c1", "Potency": "inconclusive [inhibitor, partial curve, poor fit]"}
{"smiles": "CCOC(=O)C1(Cc2ccccc2)CCN(Cc2cccc3c2OCO3)CC1", "Potency": "inconclusive [inhibitor, single point]"}
{"smiles": "COc1ccc(C)cc1NC(=O)N1CCCc2ccccc21", "activity change, negative = inhibition": "inactive: -13.7%"}
{"smiles": "CCCCOP(=O)(OCCCC)C(Nc1ccc(C(=O)OCC)cc1)c1ccncc1", "note": "(stereo not given)", "Potency": "inconclusive [inhibitor, full curve, poor fit]"}
{"smiles": "O=C(NCCNc1ccc([N+](=O)[O-])cc1C(F)(F)F)c1ccc(F)cc1", "Potency": "inconclusive [inhibitor, single point]"}
{"smiles": "Cc1ccc(NC(=S)NCC23C=CC(O2)C2C(=O)N(c4ccc(C)cc4)C(=O)C23)cc1", "note": "(stereo not given)", "Potency": "inconclusive [inhibitor, single point]"}
{"smiles": "CN(C(=S)Nc1ccccc1)c1ccccc1", "activity change, negative = inhibition": "inactive: 6.26%"}
{"smiles": "CN(C)CCCOC(=O)c1sc2ccccc2c1Cl", "activity change, negative = inhibition": "inactive: 20.1%"}
{"smiles": "Cc1cc[n+](CC(=O)Nc2ccccc2)cc1", "Potency": "inconclusive [inhibitor, partial curve, poor fit]"}
{"smiles": "O=C(NCCN1C(=O)S/C(=C\\c2ccccc2)C1=O)C1CCN(S(=O)(=O)c2cccs2)CC1", "activity change, negative = inhibition": "inactive: 17.2%"}
{"smiles": "CC(=O)Nc1ccc2c(CN3C(=O)NC(C)(c4ccc(C)cc4)C3=O)cc(=O)oc2c1", "note": "(stereo not given)", "Potency": "inconclusive [inhibitor, partial curve, poor fit]"}
{"smiles": "CC(=O)CCc1ccc(OCC(=O)Nc2cccc(S(=O)(=O)N(C)c3ccccc3)c2)cc1", "Potency": "inconclusive [inhibitor, single point]"}
{"smiles": "CCCOc1ccc(-c2nnn(CC(=O)c3ccc4c(c3)OCCO4)n2)cc1", "Potency": "inconclusive [inhibitor, single point]"}
{"smiles": "O=C(N/N=C/c1cccnc1)c1ccccc1OCc1ccc(Cl)cc1", "Potency": "inconclusive [inhibitor, single point]"}
{"smiles": "CC(C)Cn1c(CN2CCN(C(=O)c3ccco3)CC2)nc2c1c(=O)n(C)c(=O)n2C", "activity change, negative = inhibition": "inactive: 4.48%"}
{"smiles": "Cc1ccccc1OCCC(=O)OCC(=O)N(C)c1c(N)n(Cc2ccccc2)c(=O)[nH]c1=O", "Potency": "inconclusive [inhibitor, full curve, poor fit]"}
{"smiles": "CC[C@@]12C(=O)N(c3cccc(Br)c3)C(=O)N1[C@H](c1ccc(Cl)cc1)[C@@H]1C(=O)N(C3CCCCC3)C(=O)[C@@H]12", "Potency": "inconclusive [inhibitor, single point]"}
{"smiles": "CC(C)[C@H]1COCCS(=O)(=O)N1Cc1ccc(Cl)cc1", "activity change, negative = inhibition": "inactive: 0.647%"}
{"smiles": "Cc1ccc(S(=O)(=O)N2CCCCC2)cc1NC(=O)CNc1ccccc1N1CCCC1=O", "Potency": "active: 13.1 µM"}
{"smiles": "c1cc2c(cc1NC1CCCCCC1)OCO2", "activity change, negative = inhibition": "inactive: 1.42%"}
{"smiles": "Cc1ccc(C)c(C(=O)C(C)Sc2nc3nn(-c4ccccc4)c(=O)c-3c3n2CCCCC3)c1", "note": "(stereo not given)", "Potency": "inconclusive [inhibitor, full curve]"}
{"smiles": "COc1ccc(S(=O)(=O)N2CCOCC2)cc1NC(=O)Cc1coc2cc(C)ccc12", "Potency": "inconclusive [inhibitor, single point]"}
{"smiles": "CC(=O)Nc1ccc(S(=O)(=O)N2CCN(CCCOc3cc(C)ccc3C)CC2)cc1", "Potency": "active: 7.38 µM"}
{"smiles": "CN(Cc1nc2ccccc2n1C)c1ccccc1", "activity change, negative = inhibition": "inactive: 0%"}
{"smiles": "O=C(Cn1cnc2c(cnn2-c2ccccc2)c1=O)N1CCCc2ccccc21", "activity change, negative = inhibition": "inactive: -8.82%"}
{"smiles": "CCOc1ccc2cc(S(=O)(=O)N3CCCCC3)ccc2c1", "Potency": "inconclusive [inhibitor, single point]"}
{"smiles": "Cc1nn2c(N3CCN(CCO)CC3)c3c(nc2c1-c1ccccc1)CCCC3", "Potency": "active: 8.28 µM"}
{"smiles": "O=C(Cc1ccc(Br)cc1)N1CCN(C(=O)c2ccco2)CC1", "activity change, negative = inhibition": "inactive: -1.03%"}
{"smiles": "O=C(COc1ccc(Cl)cc1)NC1=NN(c2ccccc2)C(=O)C1", "activity change, negative = inhibition": "inactive: 7.78%"}
{"smiles": "CCn1ccnc1CN(C)C(=O)CCc1nnc(CCC2CCCCC2)o1", "Potency": "inconclusive [inhibitor, single point]"}
{"smiles": "CCc1ccccc1-n1nnnc1SCC(=O)Nc1ccc(N2CCN(C)CC2)cc1", "Potency": "active: 14.7 µM"}
{"smiles": "Cc1oc(-c2ccc3ccccc3c2)nc1CN(C)C(C)c1ccncn1", "note": "(stereo not given)", "activity change, negative = inhibition": "inactive: 33.5%"}
{"smiles": "CC1CCN(S(=O)(=O)c2ccc3c(c2)c(=O)c(C(=O)NC2CCCC2)cn3C)CC1", "activity change, negative = inhibition": "inactive: 35.5%"}
{"smiles": "CC(C)n1nc(C(=O)NNC(=O)c2ccncc2)c2ccccc2c1=O", "Potency": "inconclusive [inhibitor, single point]"}
{"smiles": "CC1CN(C(=O)c2ccc(NS(=O)(=O)c3ccc(C(C)(C)C)cc3)cc2)CC(C)O1", "note": "(stereo not given)", "Potency": "inconclusive [inhibitor, partial curve, poor fit]"}
{"smiles": "CC(C)(Cc1c[nH]c2ccccc12)NCC(O)COc1ccccc1C#N", "note": "(stereo not given)", "Potency": "active: 16.9 µM"}
{"smiles": "CC(C)CN(C(=O)CSc1n[nH]c(-c2cccs2)n1)C1CCS(=O)(=O)C1", "note": "(stereo not given)", "activity change, negative = inhibition": "inactive: -1.24%"}
{"smiles": "NC(=O)C1CCCN(C(=O)CCc2nnc(C3(c4ccc(Cl)cc4)CCC3)o2)C1", "note": "(stereo not given)", "Potency": "inconclusive [inhibitor, full curve, poor fit]"}
{"smiles": "CCCCn1c(SCC(=O)Nc2cccc(C)n2)nnc1-c1ccco1", "Potency": "inconclusive [inhibitor, single point]"}
{"smiles": "CCOC(=O)CSc1nnnn1-c1cc(OC)c(Cl)cc1OC", "Potency": "inconclusive [inhibitor, single point]"}
{"smiles": "Cc1ccc(-c2cc(C(=O)Nc3ccccn3)c3ccccc3n2)o1", "Potency": "inconclusive [inhibitor, single point]"}
{"smiles": "CSCCC(NC(=O)c1ccco1)C(=O)Nc1ccc(C)c(S(=O)(=O)N2CCOCC2)c1", "note": "(stereo not given)", "Potency": "inconclusive [inhibitor, single point]"}
{"smiles": "Cc1ccc(N2CCN(CC(O)COc3ccccc3)CC2)cc1", "note": "(stereo not given)", "activity change, negative = inhibition": "inactive: -9.87%"}
{"smiles": "O=C(OC(C(=O)Nc1ccc([N+](=O)[O-])cc1Br)c1ccccc1)c1ccccc1", "note": "(stereo not given)", "Potency": "inconclusive [inhibitor, partial curve]"}
{"smiles": "CCCC(=O)NC(c1ccc(N(C)C)cc1)c1ccc2cccnc2c1O", "note": "(stereo not given)", "Potency": "active: 6.57 µM"}
{"smiles": "COc1ccc2c(c1)C(=O)N(c1ccc(C)cc1C)C(=O)C2", "activity change, negative = inhibition": "inactive: 3.25%"}
{"smiles": "CC(C)C(NS(=O)(=O)c1cccs1)C(=O)N1CCc2ccccc2C1", "note": "(stereo not given)", "Potency": "inconclusive [inhibitor, partial curve, poor fit]"}
{"smiles": "COc1ccc(-c2nn(-c3ccccc3)cc2/C=C(\\CC(=O)O)c2nc3ccccc3s2)cc1OC", "Potency": "inconclusive [inhibitor, partial curve]"}
{"smiles": "COc1ccc(N(C(=O)c2snc(C(N)=O)c2N)C(C(=O)NC2CCCC2)c2cccs2)c(OC)c1", "note": "(stereo not given)", "Potency": "inconclusive [inhibitor, partial curve, poor fit]"}
{"smiles": "Oc1ccc(Cl)cc1CNCc1ccc(F)cc1", "Potency": "active: 5.22 µM"}
{"smiles": "CCOC(=O)N1CCN(S(=O)(=O)c2cc(Cl)ccc2Cl)CC1", "Potency": "inconclusive [inhibitor, partial curve]"}
